{"source": "the supplement of paper PMC12067093", "about": "“Discovery and optimisation of a covalent ligand for TRIM25 and its application to targeted protein ubiquitination” (Chemical Science, 2025)", "note": "Of roughly 21,000 targets only a part is listed; those with the largest changes were picked by preference.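 Note: competitive chemoproteomic profiling in live THP-1 cells with an iodoacetamide desthiobiotin (IA-DTB) probe, comparing probe-labelled peptide intensities in compound-treated cells against DMSO-treated controls.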", "data": [{"compound": "CC1Cc2ccccc2N1C(=O)C1CCCN(C1)C(=O)CCl (mixture of isomers) [TRIM25 ligand 11 (diastereomer mixture)]", "test": "probe-labelled cysteine peptide fold change vs DMSO (competition) (log2 fold change); higher = less target engagement (more negative = stronger competition)", "conditions": "50 µM; THP-1; incubation time: 4 h", "values": [{"target": "QARS_P47897_111_SHPLDPIDTVDFERECGVGVIVTPEQIEEAVEAAINR (UniProt P47897)", "probe-labelled cysteine peptide fold change": -0.248}, {"target": "RFTN1_Q14699_211_GDHASLENEKPGTGDVCSAPAGR (UniProt Q14699)", "sequence (Q14699 whole entry, looked up)": "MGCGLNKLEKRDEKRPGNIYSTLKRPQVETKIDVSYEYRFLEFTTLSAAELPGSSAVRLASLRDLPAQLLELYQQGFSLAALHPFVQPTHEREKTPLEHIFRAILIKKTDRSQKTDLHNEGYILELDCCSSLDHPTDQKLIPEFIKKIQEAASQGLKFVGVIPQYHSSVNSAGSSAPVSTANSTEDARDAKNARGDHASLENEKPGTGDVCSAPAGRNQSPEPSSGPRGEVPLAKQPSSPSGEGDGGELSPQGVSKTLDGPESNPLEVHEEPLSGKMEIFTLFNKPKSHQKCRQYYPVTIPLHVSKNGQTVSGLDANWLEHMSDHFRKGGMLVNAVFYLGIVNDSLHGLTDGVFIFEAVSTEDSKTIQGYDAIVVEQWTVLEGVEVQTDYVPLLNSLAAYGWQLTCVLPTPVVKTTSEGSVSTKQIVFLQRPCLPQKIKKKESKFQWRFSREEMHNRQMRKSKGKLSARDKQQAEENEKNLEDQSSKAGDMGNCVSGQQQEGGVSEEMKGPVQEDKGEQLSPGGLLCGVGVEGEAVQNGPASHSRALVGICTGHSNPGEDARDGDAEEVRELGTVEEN", "probe-labelled cysteine peptide fold change": 0.0329}, {"target": "RABEP1_Q15276_718_EQIQAEQCLK (UniProt Q15276)", "probe-labelled cysteine peptide fold change": -0.052}, {"target": "PYCR2_Q96C36_232_DNVCSPGGATIHALHFLESGGFR (UniProt Q96C36)", "probe-labelled cysteine peptide fold change": -0.0775}, {"target": "RAB4A_P20338_28_SCLLHQFIEK (UniProt P20338)", "probe-labelled cysteine peptide fold change": 0.0331}, {"target": "PSMA7_O14818_70_ICALDDNVCMAFAGLTADAR (UniProt O14818)", "probe-labelled cysteine peptide fold change": 0.243}, {"target": "RBM17_Q96I25_339_CVIFEIPGAPDDEAVR (UniProt Q96I25)", "probe-labelled cysteine peptide fold change": 0.0679}, {"target": "RNF213_Q63HN8_2503_EVLCDHMVDGQPLAEDSGLHIIAACNPYRK (UniProt Q63HN8)", "probe-labelled cysteine peptide fold change": -0.0993}, {"target": "RFC3_P40938_32_NLVQCGDFPHLLVYGPSGAGKK (UniProt P40938)", "sequence (P40938 whole entry, looked up)": "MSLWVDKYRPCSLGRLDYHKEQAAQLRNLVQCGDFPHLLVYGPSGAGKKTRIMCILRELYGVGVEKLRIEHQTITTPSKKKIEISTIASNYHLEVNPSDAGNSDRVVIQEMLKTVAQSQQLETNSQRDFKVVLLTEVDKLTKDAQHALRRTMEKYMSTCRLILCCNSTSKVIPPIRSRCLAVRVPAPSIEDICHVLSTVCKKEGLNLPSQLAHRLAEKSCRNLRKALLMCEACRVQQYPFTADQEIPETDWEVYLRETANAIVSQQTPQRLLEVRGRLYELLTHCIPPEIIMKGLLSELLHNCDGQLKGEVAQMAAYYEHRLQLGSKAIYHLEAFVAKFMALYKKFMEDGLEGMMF", "probe-labelled cysteine peptide fold change": -0.0261}, {"target": "RBBP5_Q15291_43_WGTLLAVGCNDGR (UniProt Q15291)", "probe-labelled cysteine peptide fold change": -0.0011}, {"target": "RAB3GAP2_Q9H2M9_636_SQELESVDEGLLQFCANK (UniProt Q9H2M9)", "probe-labelled cysteine peptide fold change": 0.074}, {"target": "RAB33A_Q14088_57_FCGGTFPDK (UniProt Q14088)", "sequence (Q14088 whole entry, looked up)": "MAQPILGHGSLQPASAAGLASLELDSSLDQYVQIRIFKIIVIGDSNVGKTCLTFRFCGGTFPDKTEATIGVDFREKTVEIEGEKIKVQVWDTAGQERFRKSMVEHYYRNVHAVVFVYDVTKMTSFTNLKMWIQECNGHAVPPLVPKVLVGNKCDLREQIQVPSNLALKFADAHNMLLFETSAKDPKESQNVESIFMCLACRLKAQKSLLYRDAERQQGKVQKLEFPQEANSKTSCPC", "probe-labelled cysteine peptide fold change": 0.327}, {"target": "PSMD14_O00487_238_SWMEGLTLQDYSEHCK (UniProt O00487)", "sequence (O00487 whole entry, looked up)": "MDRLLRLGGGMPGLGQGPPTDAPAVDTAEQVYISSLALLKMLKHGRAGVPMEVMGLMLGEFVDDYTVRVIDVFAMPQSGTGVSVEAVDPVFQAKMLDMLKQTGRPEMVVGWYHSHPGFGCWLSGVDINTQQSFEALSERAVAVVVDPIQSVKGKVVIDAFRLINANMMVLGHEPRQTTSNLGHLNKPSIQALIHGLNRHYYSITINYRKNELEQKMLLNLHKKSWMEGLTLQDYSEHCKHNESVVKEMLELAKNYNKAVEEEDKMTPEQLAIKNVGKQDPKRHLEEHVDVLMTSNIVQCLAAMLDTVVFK", "probe-labelled cysteine peptide fold change": -0.0838}, {"target": "RBFA_Q8N0V3_338_TEDGHSCGASR (UniProt Q8N0V3)", "probe-labelled cysteine peptide fold change": -0.0691}, {"target": "RCHY1_Q96PM5_43_LCHDNNEDHQLDR (UniProt Q96PM5)", "probe-labelled cysteine peptide fold change": 0.536}, {"target": "RNF213_Q63HN8_1677_EGGDVTELLAALCR (UniProt Q63HN8)", "probe-labelled cysteine peptide fold change": 0.57}, {"target": "PTDSS1_P48651_347_QYYAYLTDTQCK (UniProt P48651)", "probe-labelled cysteine peptide fold change": 0.00859}, {"target": "PXK_Q7Z7A4_196_DFQCLIK (UniProt Q7Z7A4)", "probe-labelled cysteine peptide fold change": 0.185}, {"target": "RANBP2_P49792_2710_ECIIVWEK (UniProt P49792)", "probe-labelled cysteine peptide fold change": -0.154}, {"target": "RBPJ_Q06330_252_LVCSVTGMALPR (UniProt Q06330)", "probe-labelled cysteine peptide fold change": -0.0369}, {"target": "RNASE2_P10153_138_YAQTPANMFYIVACDNRDQR (UniProt P10153)", "probe-labelled cysteine peptide fold change": -0.589}, {"target": "PTER_Q96BW5_38_TLTHEHLAMTFDCCYCPPPPCQEAISK (UniProt Q96BW5)", "probe-labelled cysteine peptide fold change": -0.326}, {"target": "RLF_Q13129_564_RECIEAR (UniProt Q13129)", "probe-labelled cysteine peptide fold change": 0.153}, {"target": "PSMG2_Q969U7_168+178_CIPEIDDSEFCIR (UniProt Q969U7)", "probe-labelled cysteine peptide fold change": 0.1}, {"target": "PSTPIP1_O43586_213_TTCEAFQLQEFDRLTILR (UniProt O43586)", "probe-labelled cysteine peptide fold change": -0.28}, {"target": "RIPOR1_Q6ZS17_196_GHREYTESMCLLESELEAQLGEFHLR (UniProt Q6ZS17)", "probe-labelled cysteine peptide fold change": 0.655}, {"target": "RARS_P54136_150_HLPDNECIEK (UniProt P54136)", "probe-labelled cysteine peptide fold change": 0.0172}, {"target": "RBL1_P28749_439_GIGETFCQHYTQSTDEQPGSHIDFAVNR (UniProt P28749)", "probe-labelled cysteine peptide fold change": 0.0553}, {"target": "RBBP5_Q15291_100_LVSASTDNIVSQWDVLSGDCDQR (UniProt Q15291)", "probe-labelled cysteine peptide fold change": -0.0987}, {"target": "ROCK2_O75116_1293_PLWHMFKPPPALECR (UniProt O75116)", "probe-labelled cysteine peptide fold change": 0.0494}, {"target": "RECQL_P46063_224_IAVDEVHCCSQWGHDFRPDYK (UniProt P46063)", "probe-labelled cysteine peptide fold change": -0.0269}, {"target": "PTBP3_O95758_68_IPCDVTEAEIISLGLPFGK (UniProt O95758)", "sequence (O95758 whole entry, looked up)": "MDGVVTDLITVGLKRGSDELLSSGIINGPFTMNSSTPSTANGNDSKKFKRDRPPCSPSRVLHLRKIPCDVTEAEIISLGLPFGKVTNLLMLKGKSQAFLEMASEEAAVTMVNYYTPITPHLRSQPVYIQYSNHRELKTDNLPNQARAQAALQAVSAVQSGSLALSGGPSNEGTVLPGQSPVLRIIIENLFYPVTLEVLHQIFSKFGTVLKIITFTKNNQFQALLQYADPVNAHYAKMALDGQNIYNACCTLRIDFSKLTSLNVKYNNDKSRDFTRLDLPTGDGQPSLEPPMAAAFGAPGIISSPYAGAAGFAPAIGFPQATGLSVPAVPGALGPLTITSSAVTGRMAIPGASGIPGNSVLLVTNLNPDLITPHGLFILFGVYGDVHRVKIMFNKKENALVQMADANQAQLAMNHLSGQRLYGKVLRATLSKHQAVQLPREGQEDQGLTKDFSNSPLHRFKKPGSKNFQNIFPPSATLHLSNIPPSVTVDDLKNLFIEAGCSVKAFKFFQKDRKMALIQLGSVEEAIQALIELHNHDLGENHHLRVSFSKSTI", "probe-labelled cysteine peptide fold change": 0.032}, {"target": "RPAP1_Q9BWH6_185_GPSVGEVVPNVGPPEGAVTCETPTPR (UniProt Q9BWH6)", "sequence (Q9BWH6 whole entry)": "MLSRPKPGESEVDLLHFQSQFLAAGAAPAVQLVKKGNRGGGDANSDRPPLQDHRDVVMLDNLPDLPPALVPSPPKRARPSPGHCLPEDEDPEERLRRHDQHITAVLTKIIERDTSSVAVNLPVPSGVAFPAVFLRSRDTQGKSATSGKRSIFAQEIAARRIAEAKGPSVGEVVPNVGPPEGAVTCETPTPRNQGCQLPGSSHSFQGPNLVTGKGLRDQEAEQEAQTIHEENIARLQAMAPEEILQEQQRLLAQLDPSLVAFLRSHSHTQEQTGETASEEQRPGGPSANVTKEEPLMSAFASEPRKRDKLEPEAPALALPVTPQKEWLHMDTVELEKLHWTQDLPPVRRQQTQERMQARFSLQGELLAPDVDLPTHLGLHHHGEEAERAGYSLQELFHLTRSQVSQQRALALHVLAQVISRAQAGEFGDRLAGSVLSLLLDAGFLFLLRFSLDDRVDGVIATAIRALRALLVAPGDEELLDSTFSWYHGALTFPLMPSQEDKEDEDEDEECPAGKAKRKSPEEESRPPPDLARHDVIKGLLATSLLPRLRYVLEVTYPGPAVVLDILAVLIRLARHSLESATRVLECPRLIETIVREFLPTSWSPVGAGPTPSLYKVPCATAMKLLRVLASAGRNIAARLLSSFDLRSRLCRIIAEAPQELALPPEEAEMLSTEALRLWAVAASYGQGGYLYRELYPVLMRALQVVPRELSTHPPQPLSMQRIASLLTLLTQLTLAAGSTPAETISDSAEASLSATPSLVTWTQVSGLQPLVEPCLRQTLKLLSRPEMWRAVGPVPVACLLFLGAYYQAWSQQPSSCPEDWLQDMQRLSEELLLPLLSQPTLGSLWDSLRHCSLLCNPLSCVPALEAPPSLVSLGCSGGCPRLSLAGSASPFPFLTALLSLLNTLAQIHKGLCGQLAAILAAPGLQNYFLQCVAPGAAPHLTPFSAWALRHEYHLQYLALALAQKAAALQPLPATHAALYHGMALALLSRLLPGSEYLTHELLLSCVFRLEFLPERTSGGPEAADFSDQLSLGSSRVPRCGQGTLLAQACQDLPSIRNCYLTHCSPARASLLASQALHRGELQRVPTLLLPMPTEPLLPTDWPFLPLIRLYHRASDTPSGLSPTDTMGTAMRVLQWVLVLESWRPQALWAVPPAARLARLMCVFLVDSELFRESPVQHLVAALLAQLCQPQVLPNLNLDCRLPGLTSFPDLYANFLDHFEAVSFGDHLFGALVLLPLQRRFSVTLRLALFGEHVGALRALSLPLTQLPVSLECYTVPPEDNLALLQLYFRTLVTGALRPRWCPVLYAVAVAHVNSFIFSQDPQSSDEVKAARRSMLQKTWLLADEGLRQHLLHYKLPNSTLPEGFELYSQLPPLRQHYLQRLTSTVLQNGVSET", "probe-labelled cysteine peptide fold change": -0.309}, {"target": "PTGS1_P23219_158_DCPTPMGTK (UniProt P23219)", "sequence (P23219 whole entry)": "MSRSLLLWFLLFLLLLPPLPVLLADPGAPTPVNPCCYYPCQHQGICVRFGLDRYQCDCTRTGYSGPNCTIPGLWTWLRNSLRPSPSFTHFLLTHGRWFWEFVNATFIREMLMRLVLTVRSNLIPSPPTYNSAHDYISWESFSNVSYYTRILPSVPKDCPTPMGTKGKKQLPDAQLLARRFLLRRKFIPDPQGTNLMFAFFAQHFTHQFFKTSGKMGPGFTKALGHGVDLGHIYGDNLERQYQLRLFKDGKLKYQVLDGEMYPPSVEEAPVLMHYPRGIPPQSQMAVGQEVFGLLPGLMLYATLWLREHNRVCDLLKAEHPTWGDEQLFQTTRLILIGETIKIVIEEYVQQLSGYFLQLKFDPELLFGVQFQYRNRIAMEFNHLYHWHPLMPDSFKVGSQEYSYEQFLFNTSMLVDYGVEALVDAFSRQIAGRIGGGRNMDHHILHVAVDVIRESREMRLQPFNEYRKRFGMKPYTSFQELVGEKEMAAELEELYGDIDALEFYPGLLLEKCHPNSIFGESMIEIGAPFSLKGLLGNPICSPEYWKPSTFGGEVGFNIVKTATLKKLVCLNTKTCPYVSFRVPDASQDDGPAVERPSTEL", "probe-labelled cysteine peptide fold change": -0.0821}, {"target": "RNF169_Q8NCN4_132_DDGQADSEVLGECAR (UniProt Q8NCN4)", "probe-labelled cysteine peptide fold change": -1.06}, {"target": "RIF1_Q5UIP0_1718_TFQTLECQHK (UniProt Q5UIP0)", "probe-labelled cysteine peptide fold change": -0.0709}, {"target": "PWWP2B_Q6NUJ5_480_LHTQSVSECITEDGR (UniProt Q6NUJ5)", "probe-labelled cysteine peptide fold change": 0.123}, {"target": "RIPOR1_Q6ZS17_925_CQEAWALER (UniProt Q6ZS17)", "probe-labelled cysteine peptide fold change": 0.0416}, {"target": "PYGL_P06737_496_WLLLCNPGLAELIAEK (UniProt P06737)", "sequence (P06737 whole entry, looked up)": "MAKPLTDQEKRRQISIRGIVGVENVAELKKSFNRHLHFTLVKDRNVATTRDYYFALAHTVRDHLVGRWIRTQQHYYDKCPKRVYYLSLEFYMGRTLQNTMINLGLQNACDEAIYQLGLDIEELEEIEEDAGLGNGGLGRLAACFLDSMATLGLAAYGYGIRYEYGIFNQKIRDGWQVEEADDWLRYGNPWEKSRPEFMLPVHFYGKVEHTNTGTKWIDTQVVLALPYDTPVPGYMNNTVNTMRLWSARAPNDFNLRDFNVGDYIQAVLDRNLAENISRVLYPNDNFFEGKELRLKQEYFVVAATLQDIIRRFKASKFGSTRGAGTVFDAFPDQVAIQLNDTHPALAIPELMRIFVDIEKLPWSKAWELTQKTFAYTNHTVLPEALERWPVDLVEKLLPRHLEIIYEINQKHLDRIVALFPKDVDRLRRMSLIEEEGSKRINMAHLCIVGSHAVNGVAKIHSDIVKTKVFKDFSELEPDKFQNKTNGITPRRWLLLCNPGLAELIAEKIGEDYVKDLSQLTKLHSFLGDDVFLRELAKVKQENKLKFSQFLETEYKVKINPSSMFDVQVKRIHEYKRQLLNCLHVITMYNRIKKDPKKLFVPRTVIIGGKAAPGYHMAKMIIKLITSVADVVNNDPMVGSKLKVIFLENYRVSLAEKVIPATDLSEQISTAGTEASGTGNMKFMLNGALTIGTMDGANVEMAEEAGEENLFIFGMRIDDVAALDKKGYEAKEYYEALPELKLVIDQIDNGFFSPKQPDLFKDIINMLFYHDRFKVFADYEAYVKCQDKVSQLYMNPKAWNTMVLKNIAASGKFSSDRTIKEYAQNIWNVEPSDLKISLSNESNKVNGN", "probe-labelled cysteine peptide fold change": 0.0845}]}]}
